# Measured values as given in patent US20160152714A1 (Chugai, published 2016).
# T1: soluble IL-6 receptor (UniProt P08887 20-344, limits assumed)
# T1 construct: The background says soluble IL-6R consists mainly of the extracellular region
# T1 sequence (looked up): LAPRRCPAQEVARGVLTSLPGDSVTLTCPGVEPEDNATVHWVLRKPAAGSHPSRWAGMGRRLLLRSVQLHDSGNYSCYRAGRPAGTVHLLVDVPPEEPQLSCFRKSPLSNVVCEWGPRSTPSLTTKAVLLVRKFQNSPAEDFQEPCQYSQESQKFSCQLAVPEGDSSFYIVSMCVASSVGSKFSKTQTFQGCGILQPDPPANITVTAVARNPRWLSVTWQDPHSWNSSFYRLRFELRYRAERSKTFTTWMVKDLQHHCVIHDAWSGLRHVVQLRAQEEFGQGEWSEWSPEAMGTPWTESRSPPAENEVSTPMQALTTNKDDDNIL
# B1: humanized PM-1 antibody subtype 1 (antibody, human IgG1, kappa)
# heavy 1: QVQLQESGPGLVRPSQTLSLTCTVSGYSITSDHAWSWVRQPPGRGLEWIGYISYSGITTYNPSLKSRVTMLRDTSKNQFSLRLSSVTAADTAVYYCARSLARTTAMDYWGQGSLVTVSS[human IgG1 constant region not spelt out]
# heavy 2: B1 heavy 1
# light: DIQMTQSPSSLSASVGDRVTITCRASQDISSYLNWYQQKPGKAPKLLIYYTSRLHSGVPSRFSGSGSGTDFTFTISSLQPEDIATYYCQQGNTLPYTFGQGTKVEIKRTVAAPSVFIFPPSDEQLKSGTASVVCLLNNFYPREAKVQWKVDNALQSGNSQESVTEQDSKDSTYSLSSTLTLSKADYEKHKVYACEVTHQGLSSPVTKSFNRGEC
# modifications: C-terminal Pro-NH2 (447), Gly 448 lost
# notes: Only one of the two heavy chains is amidated (C-terminal SLSLSP-NH2), the other ends in SLSLSPG; The N-terminal Gln of the heavy chain 'may be' pyroglutamylated
# Molecular target: T1, soluble IL-6 receptor
# Assay: competition ELISA on captured soluble IL-6 receptor, competitor biotinylated MRA; parallel line test (3+3)
binder,measurement,value
B1,Activity,1130
